This is one part of the list. At the low end of the ranking the order means little.

The test concerns the target SIX1-Q177R homeodomain (UniProt Q15475). Put plainly: universal protein binding microarray. To be noted: Universal all-10-mer PBM (8x60K, AMADID 030236), 300 nM GST-tagged protein, Alexa Fluor 488 anti-GST; buffer, salt, pH and temperature not stated; high values mean tight binding; most listed sequences are background and not binding sites; double strand, one strand shown.
CGAACAAA: the binding signal is -0.0337 E-score. With AATTCGTG the figure was 0.0507 E-score. With CAACGGCG the figure was -0.0669 E-score. In the case of AATGAGAG, the binding signal was -0.166 E-score.

For the sequence ATGTTCAC, the binding signal turned out to be 0.00112 E-score. For GAAGCCTA the value was -0.0239 E-score; for GGGACCCA, 0.133 E-score; for TCCCTTCA, -0.1 E-score.

For the sequence CCAGATGA, the binding signal is -0.0229 E-score. With CACGGGCA the figure was 0.131 E-score; with TTGTCAAA, 0.00449 E-score. For TCGTATCA the value was 0.0533 E-score; for GAAATTCA, -0.0836 E-score. For AAGTTTGC the value was -0.125 E-score; for ATCCTCCC, 0.103 E-score. On to CAGCACGC, for which the binding signal was -0.00891 E-score.

As to AGTGTATG, the binding signal came out at 0.36 E-score. For GTGTGCAA the value was 0.252 E-score. With ATGTGTCG the figure was 0.188 E-score; with CAACTAAA, -0.173 E-score; with GCATGGCC, -0.113 E-score.

With AGCATGCT, the binding signal is -0.202 E-score. For ACTAGTAG the value was -0.116 E-score; for ATGTACCA, -0.186 E-score; for AATAGGAT, -0.104 E-score.

On to GGCACCCA, for which the binding signal came to 0.0325 E-score. For ACCCCTCC the value was 0.284 E-score; for CTCACCGA, 0.0324 E-score; for AGGAGAGC, -0.0844 E-score. Take AGACCTGG: the binding signal was -0.109 E-score. With CCGTACGC, the binding signal was found to be 0.11 E-score. For AGAAAAGC the value was -0.271 E-score.

For AAGTAGGG, the binding signal stood at 0.0659 E-score. With ACGTGGCG the figure was -0.00727 E-score; with ATCGAGAA, -0.108 E-score; with AAAGGATG, -0.0679 E-score.

Regarding CAACTAGA, the binding signal is -0.0489 E-score. With TGGACAAA the figure was -0.131 E-score; with GCGAACAA, -0.073 E-score. For CCCCGGAA the value was 0.089 E-score; for CTTCCCCC, -0.0757 E-score; for GTTCGGTA, 0.156 E-score. For ATCACACG, the binding signal came out at 0.318 E-score.

Regarding AGAGAGGC, the binding signal was -0.12 E-score. With CTGTCCAA the figure was -0.0628 E-score; with GGGTGTCA, 0.492 E-score; with CGGTGAAC, 0.0865 E-score. With CACGCACG the figure was 0.304 E-score. For AACAGCGT the value was 0.00692 E-score; for CGTGCGTA, 0.0925 E-score. With AGGGAAAC, the binding signal is -0.182 E-score. For GTGCAACA the value was 0.292 E-score; for CAGAAACA, 0.132 E-score; for TAAGCGTA, -0.215 E-score. With ACGCTTCG the figure was 0.0393 E-score; with CAAATCTG, -0.107 E-score.

Regarding CTTAGAAA, the binding signal is -0.312 E-score. With CGGGTAAC the figure was 0.2 E-score; with ATAAGGTC, 0.0187 E-score.

CAGCGTAG: the binding signal was -0.0333 E-score. For AGCGTTAA the value was -0.11 E-score; for AAACAGCA, -0.237 E-score; for AGCGCCTA, -0.0741 E-score. With TATAGAAA the figure was -0.0952 E-score; with AGGGGATG, -0.0313 E-score; with AAAGCGAA, -0.117 E-score. For AGTCCCGC the value was -0.212 E-score; for ACCCACGA, 0.153 E-score; for ACCACCCC, 0.249 E-score. With GCAGACAC, the binding signal came to 0.352 E-score.

Regarding ACAACTAG, the binding signal is -0.128 E-score. On to GTCGCAAC, for which the binding signal is -0.121 E-score. For ACAGTGGG the value was 0.138 E-score; for ACGTCTCC, -0.0601 E-score. In the case of AGGAAGCA, the binding signal is -0.0691 E-score. With CACCTCTA the figure was 0.295 E-score. For AGGACTCA, the binding signal is -0.224 E-score. For CGAGAATC the value was -0.0521 E-score. Turning to CCTGCCCC, the binding signal is -0.00641 E-score. Turning to AACGATTC, the binding signal is -0.169 E-score. For TAGGCCAA the value was -0.316 E-score. For TTGCACAA the value was -0.133 E-score. In the case of ATCATTCA, the binding signal was -0.202 E-score. On to AAATAAGG, for which the binding signal was -0.107 E-score. For ACGTCACC the value was -0.0827 E-score; for GAACTACA, 0.225 E-score.

On to CAGTCTGG, for which the binding signal is -0.143 E-score. For AGCTACGG the value was -0.07 E-score; for AAGGATCG, 0.123 E-score; for CGGTAAAG, 0.00359 E-score. AGATGCGA: the binding signal is -0.0197 E-score. For AGGCGGTA the value was -0.0737 E-score.

Take AGCCTGAA: the binding signal was -0.129 E-score. With ACTGAGAG the figure was 0.108 E-score; with AGCTGACC, -0.00218 E-score; with CCAGGAGC, -0.105 E-score. For ATCAAACA the value was 0.105 E-score. For AACTGGCC the value was -0.148 E-score.

Consider GGATCCCC, for which the binding signal is 0.298 E-score. Consider TGCTGTAA, for which the binding signal is -0.14 E-score. For AAATCGCT the value was -0.26 E-score; for ATGGGGAA, 0.0287 E-score.

Turning to AGATCGCT, the binding signal is -0.17 E-score.

For the sequence CGTCTTGC, the binding signal worked out at 0.0347 E-score. For CCATACGC the value was 0.0455 E-score; for AGATTGGA, -0.201 E-score. With CTCGTACA the figure was 0.17 E-score; with AGCGCGCC, -0.246 E-score; with TGCGTGAA, -0.0663 E-score. For AGGTACCC, the binding signal worked out at 0.102 E-score. With CAGCCGTC, the binding signal is -0.301 E-score. Turning to GATAAGTA, the binding signal was -0.00791 E-score.

With ATTCATCA, the binding signal was -0.206 E-score.

For ACATGACG, the binding signal is -0.128 E-score. AATATACG: the binding signal was -0.165 E-score. With GATAGTGA the figure was -0.0494 E-score.

On to AATTACGA, for which the binding signal came to 0.112 E-score. With GACATCAA, the binding signal is -0.104 E-score. With AAAGAAGT the figure was -0.0938 E-score. With AAGCCAGA, the binding signal was -0.199 E-score. For AAAGAAAG the value was -0.272 E-score. With AAGTCGGC the figure was -0.152 E-score; with ATTATAAT, -0.176 E-score. With CGCCACCG the figure was -0.0681 E-score; with TATAACAA, 0.0994 E-score. With CCACCACC, the binding signal amounted to 0.00117 E-score. With CCTGTGAG the figure was -0.0203 E-score. As for CGATAGGC, the binding signal was -0.109 E-score.

In the case of ATTTAGTG, the binding signal turned out to be 0.0656 E-score. With GTTCCAGA the figure was -0.082 E-score; with AGTATGCA, -0.0876 E-score.

On to CACACCTG, for which the binding signal amounted to 0.389 E-score. For TAGTCGCA the value was 0.0252 E-score; for CGGCCGAG, 0.0913 E-score. For CCCGCCGA the value was 0.0749 E-score; for GCATACTA, -0.0391 E-score. For ACCCAAGG the value was 0.0682 E-score; for AAATCAGC, -0.213 E-score. In the case of CGTCGTAA, the binding signal stood at 0.0683 E-score. For AGGTCGCG the value was 0.113 E-score; for TAACAATA, -0.208 E-score. For ACAGAGGC the value was -0.174 E-score; for ACAATCTA, -0.205 E-score. For AATTGAGG the value was -0.205 E-score; for ATAAAGAT, -0.126 E-score; for AGAACTGA, -0.199 E-score.

Regarding CTCGAGGA, the binding signal was -0.0895 E-score.

As for AAGAGCGG, the binding signal is -0.148 E-score. With CAGATGCC the figure was 0.00999 E-score. For ATTACCTC the value was -0.119 E-score. For CGAAGCCA the value was -0.184 E-score; for CGAATACA, 0.227 E-score. Take CCTTTTGA: the binding signal is -0.107 E-score. For ACCTTATA the value was 0.0849 E-score; for AAAGCAGT, 0.0273 E-score. With CCACACGC the figure was 0.282 E-score; with GCCATTAC, -0.0145 E-score. For ACCCAATC the value was -0.0121 E-score. On to AACCATTA, for which the binding signal was 0.0238 E-score. For CAAAGGTC the value was -0.0694 E-score; for GCGAACGC, 0.0835 E-score; for ACGAACGA, -0.0936 E-score. With GCAGCCGC the figure was -0.133 E-score. On to ACCTTGGC, for which the binding signal was found to be 0.0949 E-score. For CTTATGAC the value was 0.0398 E-score; for TTACCAAA, -0.154 E-score; for GTGATTCA, -0.0215 E-score. For GGCAACTA the value was -0.214 E-score; for AGCAGCGA, -0.0942 E-score; for CTTGCATC, -0.288 E-score. With CTTCTTTA the figure was -0.168 E-score; with GAAGGCTC, -0.277 E-score; with CTCTCTAC, 0.00378 E-score. For CGTATGCA, the binding signal was -0.00155 E-score.

Regarding CAACCTGC, the binding signal came to 0.0761 E-score.

In the case of AAGTCCTG, the binding signal is -0.208 E-score. On to AAATTGAC, for which the binding signal was found to be 0.0182 E-score. For AAATATCT the value was 0.00511 E-score; for ATAAGAGG, 0.0849 E-score. For ACAGACCC the value was 0.0367 E-score. For the sequence CGCCGGCG, the binding signal was 0.192 E-score.

ATAAGCGC: the binding signal was -0.0952 E-score. For the sequence GGGGCCAA, the binding signal is -0.0855 E-score.

CTGTAACA: the binding signal was determined as 0.148 E-score. For AATACGGG, the binding signal is 0.016 E-score. With ACTGGCCA the figure was -0.145 E-score; with ATGTTGTC, -0.0529 E-score.

As for AGATACAG, the binding signal was -0.106 E-score. For GGCGACCA the value was -0.196 E-score. Regarding CGCGTGGA, the binding signal was -0.0894 E-score.

For GAGGAGTA, the binding signal stood at 0.132 E-score. For AAGCTGGG the value was 0.0681 E-score.

On to ATCCATAG, for which the binding signal stood at 0.0728 E-score. With CGGCACCG the figure was 0.239 E-score; with ACCTTACC, 0.155 E-score.

In the case of CACGATGA, the binding signal was determined as 0.114 E-score. On to ATTGCATA, for which the binding signal was -0.0667 E-score. With AGACCTAA the figure was -0.342 E-score; with ACCTCTAT, -0.161 E-score; with GACCCTGC, -0.0125 E-score. For CACGAGCG the value was 0.107 E-score; for ATCCCAGA, -0.0167 E-score.

Consider ACGCTTAG, for which the binding signal is 0.136 E-score.

Turning to AGCGGCTA, the binding signal is -0.188 E-score. TCATCAGA: the binding signal was -0.131 E-score. For AGCCGAGC the value was -0.122 E-score. With CGGCACCA the figure was 0.181 E-score.

With ACCTATAT, the binding signal was -0.0657 E-score.

In the case of TATCGTAA, the binding signal was -0.00455 E-score.

As for CAGTATAG, the binding signal was -0.0994 E-score. With CACTCCCC the figure was 0.283 E-score. With AGATCGTA the figure was -0.131 E-score. Consider AAAACCAT, for which the binding signal worked out at 0.00645 E-score. With ACCTGAAA, the binding signal came to 0.0676 E-score. With TAGTGGAA the figure was -0.229 E-score; with CTTAATAA, -0.138 E-score; with ACGGAGAC, 0.107 E-score. With GAAGAGAA the figure was -0.192 E-score. Take GCCTCGCC: the binding signal is 0.0714 E-score.

(Values after article PMC10668032.)
